Results from PubChem BioAssay AID2101 (National Center for Advancing Translational Sciences (NCATS), 2009).
Out of some 330,000 compounds screened, about 300 (0.091%) were called active. This list was built around the results that the source calls inconclusive (neither active nor inactive); the mix of calls is not that of the screen. Calls follow the shape of the dose curve; as a rule, active = well fitted inhibition curve with a large enough effect; inconclusive = small, poorly fitted or top-dose-only effect, or effect the other way, or another doubt; inactive = no such curve, though single readings can be large or run the other way. No potency is given beside an inconclusive call; the fits are too rough.

Each compound was assayed against Lysosomal acid glucosylceramidase (Homo sapiens) (UniProt P04062) (assay: qHTS Assay for Inhibitors and Activators of N370S glucocerebrosidase as a Potential Chaperone Treatment of Gaucher Disease). Settings: N370S GC spleen homogenate, 4MU-glucoside fluorescence; activity change, negative = inhibition: at 59.4 µM (top of the series) unless noted.
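For activity change, negative = inhibition in this document: 0% = full enzyme activity and -100% = no enzyme basal.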
Potency is read from the fitted curve at half-maximal effect.

SMILES | Potency | activity change, negative = inhibition
COC(=O)c1c(NC(=O)C2CC(C)=C(C)CC2C(=O)O)sc2c1CCCCC2 (stereo not drawn) | inconclusive [activator, single point] | –
O=C1CC(=O)Nc2cc(S(=O)(=O)Nc3cccc(C(F)(F)F)c3)ccc2N1 | inconclusive [inhibitor, single point] | –
COc1cccc(Nc2ncc3nc(CCc4ccccc4)c(=O)n(C)c3n2)c1 | – | inactive: -0.866%
CCOC(=O)c1c(NC(=O)CSc2n[nH]c(-c3ccco3)n2)sc(C)c1C | inconclusive [activator, single point] | –
O=C(CSc1nccc(-c2cccs2)n1)Nc1ccccc1 | inconclusive [activator, single point] | –
O=C(Nc1ccccc1N1CCN(C(=O)c2ccc(Cl)cc2)CC1)c1ccc2c(c1)OCO2 | – | inactive: 14.5%
N/C(=N\OC(=O)COc1ccccc1)c1ccncc1 | – | inactive: 1.96%
Cc1c(C)c2c(OCC(=O)N[C@@H](C(=O)O)c3ccccc3)cc3c(c2oc1=O)CCC(C)(C)O3 | inconclusive [activator, single point] | –
O=[N+]([O-])c1ccc(N2CCN(S(=O)(=O)c3ccccc3)CC2)cc1NCC1CCCO1 (stereo not drawn) | – | inactive: -3.74%
COc1ccc(NCc2nc3ccccc3n2CCOc2ccccc2)cc1 | inconclusive [activator, partial curve] | –
CCN1CCN(CCCNC(=O)c2ccc3c(c2)NC(=O)/C(=C\c2cccc(C)c2)S3)CC1 | inconclusive [inhibitor, single point] | –
CCCCOc1ccccc1NC(=O)CC1Nc2ccccc2NC1=O (stereo not drawn) | inconclusive [activator, partial curve] | –
O=C(CSc1nc2nccnc2c(=O)n1Cc1cccs1)Nc1ccccc1F | inconclusive [activator, partial curve, poor fit] | –
O=C1c2ccccc2OC2(C=Cc3ccccc3O2)N1Cc1ccccc1 (stereo not drawn) | inconclusive [activator, partial curve] | –
COc1cc(CNC2CCCC2)cc(Cl)c1OCc1ccccc1F | inconclusive [inhibitor, partial curve] | –
CCOC(=O)c1cc(C#N)c(N2CCCC2)nc1-c1ccccc1 | – | inactive: 6.62%
CC(C)CC(=O)NC(=S)Nc1nc(-c2ccccc2)cs1 | – | inactive: 9.03%
CC(=O)c1ccc(Oc2cc(C)nc(NCc3ccccc3)n2)cc1 | inconclusive [activator, partial curve] | –
OC(CN(c1ccccc1)c1ccccc1)Cn1cnc2ccccc21 (stereo not drawn) | inconclusive [activator, partial curve] | –
c1ccc2[nH]c(NCCCc3cnc[nH]3)nc2c1 | inconclusive [inhibitor, partial curve] | –
CCOC(=O)C1CCN(Cc2cn[nH]c2-c2ccc(C)cc2)CC1 | inconclusive [inhibitor, full curve, poor fit] | –
COc1cc(OC)c(OC)cc1/C=N/NC(=O)CC1C(=O)NN=C1C (stereo not drawn) | – | inactive: 0.568%

SMILES | Potency | activity change, negative = inhibition
Cc1c2c(nc3ccccc13)-c1cccc(=O)n1C2 | inconclusive [activator, full curve] | –
c1ccc2nc3c(nc2c1)OCC1CCCCN31 (stereo not drawn) | inconclusive [activator, partial curve] | –
COc1cccc(CNC(=O)CSCC(=O)Nc2cc(C)on2)c1 | inconclusive [inhibitor, full curve, poor fit] | –
Cc1cc(N2CCN(S(=O)(=O)c3ccccc3)CC2)c2ccccc2n1 | inconclusive [inhibitor, partial curve] | –
Cc1nonc1NC(=O)CSc1nc2ccccc2o1 | – | inactive: -4.98%
O=C(CN1C(=O)NC2(CCCC2)C1=O)NNC(=O)c1ccc(Br)cc1 | inconclusive [inhibitor, full curve, poor fit] | –
COc1cccc(NC(=O)CN(C)C(=O)c2cc(-c3ccco3)nc3ccccc23)c1 | inconclusive [activator, single point] | –
COc1ccccc1C(=O)Nc1ccc2c(c1)nc(CCNC(C)=O)n2C | – | inactive: -0.0394%
CC1(C)CC(=O)C2=C(C1)c1c(ccc3ccccc13)NC2c1ccco1 (stereo not drawn) | inconclusive [activator, full curve] | –
CCOc1ccc(NC(=O)Nc2cccc(C)n2)cc1 | inconclusive [activator, single point] | –
CCN1C(=O)[C@H]2[C@H]3[C@H](O)[C@H](O)C/C(=N/OC[C@@H]4O[C@H](c5ccccc5)C=C[C@@H]4Oc4ccc(OC)cc4)[C@@H]3CC[C@@H]2C1=O | – | inactive: 4.4% [at 12.8 µM]
O=C(COC(=O)c1ccccc1NC(=O)c1ccco1)NCC1CCCCC1 | inconclusive [activator, single point] | –
CCOC(=O)c1nnn(-c2nonc2N)c1COc1cc(C)c(Cl)c(C)c1 | inconclusive [inhibitor, partial curve] | –
O=C(COc1ccccc1C(=O)c1cnn(-c2ccccc2)c1)Nc1ccc2ccccc2c1 | inconclusive [activator, partial curve] | –
O=[N+]([O-])c1cc(Cl)ccc1-c1nc(-c2ccncc2)no1 | – | inactive: 4.37%
CCc1cccc(NS(=O)(=O)c2ccc3c(c2)NC(=O)CC(=O)N3)c1 | inconclusive [inhibitor, partial curve, poor fit] | –
CCNc1ncc2nc(-c3cc(F)cc(F)c3)c(=O)n(C)c2n1 | inconclusive [activator, partial curve] | –
CCN(CC)c1ccc2c(Nc3ccccc3)c(C=O)c(=O)oc2c1 | inconclusive [activator, single point] | –
COc1ccc(N/N=C(/Oc2ccc([N+](=O)[O-])cc2)C(C)=O)cc1 | – | inactive: -1.46%
CC(NC(=O)c1cc2ccccc2oc1=O)c1ccccc1 (stereo not drawn) | inconclusive [activator, single point] | –
CNc1sc(C(=O)c2cccs2)c(N)c1-c1nc2ccccc2s1 | – | inactive: 6.16% [at 2.35 µM]
